Our source for the binding values is PMC3682574.

By UniProt entry, the sequences of proteins in these tests, tags left out. Where a name states a change or a piece, a line headed by the entry shows the natural chain unless it says otherwise.
UniProt P62879: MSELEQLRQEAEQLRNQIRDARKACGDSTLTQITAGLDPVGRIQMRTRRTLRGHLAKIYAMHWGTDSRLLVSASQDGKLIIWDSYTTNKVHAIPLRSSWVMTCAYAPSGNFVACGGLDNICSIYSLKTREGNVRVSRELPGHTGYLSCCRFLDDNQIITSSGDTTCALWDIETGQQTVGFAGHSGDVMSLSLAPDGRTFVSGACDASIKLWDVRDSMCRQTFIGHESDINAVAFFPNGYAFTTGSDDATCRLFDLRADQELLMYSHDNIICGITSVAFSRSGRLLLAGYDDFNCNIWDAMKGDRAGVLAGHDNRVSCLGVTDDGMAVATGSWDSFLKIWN
UniProt P62873: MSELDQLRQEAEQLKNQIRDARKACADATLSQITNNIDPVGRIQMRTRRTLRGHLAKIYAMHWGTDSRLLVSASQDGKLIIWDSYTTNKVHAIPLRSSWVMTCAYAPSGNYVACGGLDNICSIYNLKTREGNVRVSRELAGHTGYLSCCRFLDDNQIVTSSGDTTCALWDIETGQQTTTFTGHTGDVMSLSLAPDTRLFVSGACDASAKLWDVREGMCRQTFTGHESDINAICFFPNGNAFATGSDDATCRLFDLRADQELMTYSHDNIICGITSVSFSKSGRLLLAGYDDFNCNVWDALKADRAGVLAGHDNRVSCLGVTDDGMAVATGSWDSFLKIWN
UniProt P45973: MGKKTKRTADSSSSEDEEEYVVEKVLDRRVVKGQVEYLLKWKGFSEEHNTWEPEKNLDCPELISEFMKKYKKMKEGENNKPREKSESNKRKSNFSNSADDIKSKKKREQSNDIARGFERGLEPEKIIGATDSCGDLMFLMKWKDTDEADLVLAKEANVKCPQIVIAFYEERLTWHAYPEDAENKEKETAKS

The target in assay [1] is T1, GST-KLF11 TRD3 (amino acids 273–351) (human) (UniProt O14901).
T1 sequence: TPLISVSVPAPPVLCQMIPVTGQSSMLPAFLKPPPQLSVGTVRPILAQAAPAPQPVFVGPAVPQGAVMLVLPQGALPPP
The assay can be described thus: pull-down; GST pulldown: GST-KLF11 TRD3 or GST-KLF11 full length with 35S-labeled in vitro translated Gβ2 or its deletions; phosphorimaging; only the target purified.

Assay [2] deals with GST-KLF11 full length (human) (UniProt O14901). The description is as above.
The target of assay [3] is KLF11-EYFP1 (human) (UniProt O14901). The assay can be described thus: condition: only vehicle, without the GPCR agonist (isoproterenol or secretin); split reporter; BiFC as above, HeLa and Capan2 cells with control treatment (vehicle), no GPCR agonist.
Assay [4] has the same target. The assay can be described thus: split reporter; BiFC: KLF11-EYFP(1) and Gβ2-EYFP(2) co-transfected in HeLa (isoproterenol) and Capan2 (secretin) cells, stimulated for 30 min before fixation; confocal microscopy.
Assay [5] addresses His-tagged KLF11 A347S (Panc1) (human) (UniProt O14901). The assay can be described thus: co-IP; immunoprecipitation of His-tagged KLF11 WT or A347S (Panc1 cells named for Fig. 4A); Western blot for endogenous Gβ2, Sin3a, HP1α and CBP/p300. In general terms: In western blotting, separated proteins are transferred to a membrane and probed.
Assay [6] addresses His-tagged KLF11 WT (Panc1) (human) (UniProt O14901). The description is as above.
The target of another assay is FLAG-tagged Gβ2 (HeLa) (UniProt P62879). The assay can be described thus: co-IP; HeLa cells co-transfected with His-KLF11 and FLAG-Gβ2 or FLAG-Gβ1; immunoprecipitation of FLAG, KLF11 detected; basal conditions and with isoproterenol (more robust).
The target of a further assay is FLAG-tagged Gβ1 (HeLa) (UniProt P62873). The description is as above.

Results are given in words; binding and its absence hold for the method and conditions named. In cells and extracts the contact can be indirect. Some entries that bind do so weakly or less than the wild type. For part of these data: Sequences can lack the tags named with a protein.

In the case of “35S-labeled in vitro translated Gβ2 (from UniProt P62879 1-340)”, in assay [1], the binding result was “binds”.

For “Gβ2(1–214) (from UniProt P62879 1-214) (domain or fragment)”, in assay [2], the binding entry is “no binding”.

In the case of “Gβ2(106–214) (from UniProt P62879 106-214) (domain or fragment)”, the binding entry in assay [2] is reported as “no binding”.

Turning to Gβ2-EYP2 (from UniProt P62879 1-340), the binding entry with KLF11-EYFP1 (human) [3] is reported as “no binding”; with KLF11-EYFP1 (human) [4], “binds”.

As for “Gβ2Δ1–105 (from UniProt P62879 106-340) (domain or fragment)”, the binding result in assay [2] is recorded as “binds”.

As for “Gβ2Δ1–120 (from UniProt P62879 121-340) (domain or fragment)”, in assay [2], the binding entry is “binds”.

Take “Gβ2Δ1–208 (from UniProt P62879 209-340) (domain or fragment)”: the binding result in assay [2] was “binds”.

As for “Gβ2Δ1–221 (from UniProt P62879 222-340) (domain or fragment)”, the binding entry in assay [2] is on record as “no binding”.

Regarding HP1α (from UniProt P45973 1-191), the binding result in assay [5] and in assay [6] was “binds” in each case.

For “His-tagged full-length KLF11 (HeLa) (from UniProt O14901 1-512)”, the binding result with FLAG-tagged Gβ2 (HeLa) and with FLAG-tagged Gβ1 (HeLa) was “binds” each time.

Take “endogenous Gβ2 (Panc1) (from UniProt P62879 1-340)”: the binding entry was “no binding” in assay [5] and “binds” in assay [6].
